We go through 2 substances from PMC10703884, “Targeting the COMMD4–H2B protein complex in lung cancer” (British Journal of Cancer, 2023).

Chains of the proteins cited; added tags and fusions are not shown.
UniProt Q9H0A8: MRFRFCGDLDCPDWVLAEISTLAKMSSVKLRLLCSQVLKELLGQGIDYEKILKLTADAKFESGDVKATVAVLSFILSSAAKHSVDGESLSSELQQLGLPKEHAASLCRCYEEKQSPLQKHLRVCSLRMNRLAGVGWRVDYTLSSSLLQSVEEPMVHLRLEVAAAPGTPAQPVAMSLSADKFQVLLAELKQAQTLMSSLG

These are yes or no findings as the source states them, for the method shown. For some assays here: In cells and extracts the contact can be indirect. Some entries that bind do so weakly or less than the wild type. Where a sequence is shown, tags or fusion partners need not be part of it.

Experiment [1] concerns the target T1, FLAG-H2BWT (10-amino acid wild-type H2B peptide with N-terminal FLAG tag and C-terminal nuclear localisation signal).
T1 sequence: SFVNDIFERIAAKRVKLDS
Briefly: co-IP; FLAG pull-down from cells treated with control or COMMD4 siRNA and then overexpressing FLAG-H2BWT or FLAG-H2BMUT1, blot for COMMD4.

In experiment [2] the target is T2, H2BMUT1pep, N-terminal biotin-tagged 10-amino acid mutant H2B peptide.
T2 sequence (peptide, biotin on the N-terminus): SFVNDKFERI
The experiment can be described thus: pull-down; biotin-tagged H2B peptides held on Streptavidin Dynabeads, recombinant GST-COMMD4 pulled down; NP40 buffer, 4 °C, purified system; both purified.

Experiment [3] has as its target T3, H2BWTpep, N-terminal biotin-tagged 10-amino acid wild-type H2B peptide.
T3 sequence (peptide, biotin on the N-terminus): SFVNDIFERI
Described as above.

Experiment [4] addresses T4, FLAG-H2BMUT1 (10-amino acid mutant H2B peptide with N-terminal FLAG tag and C-terminal nuclear localisation signal).
T4 sequence: SFVNDKFERIAAKRVKLDS
The experiment can be described thus: co-IP; FLAG-H2BWT or FLAG-H2BMUT1 immunoprecipitated from HEK293T (anti-FLAG M2 Dynabeads, NP40 buffer, 4 °C), blot for GST-COMMD4 and FLAG; only the binder purified.

The target in experiment [5] is T1, FLAG-H2BWT (10-amino acid wild-type H2B peptide with N-terminal FLAG tag and C-terminal nuclear localisation signal). The description is as above.

Take “COMMD4 (endogenous) (from UniProt Q9H0A8 1-199)”: the binding result in experiment [1] is reported as “binds”.

“recombinant GST-COMMD4 (from UniProt Q9H0A8 1-199)”: the binding entry in experiment [2] was “no binding”; in experiment [3] it was “binds”; in experiment [4], “no binding”; in experiment [5], “binds”.
